Screen size: about 7,900 compounds; about 400 (5.1%) showed an effect of 50% or more. The list shows a part of the results.
What follows are compounds tested against Parkinson's disease protein 7 (PARK7/DJ1) (human, UniProt Q99497) (assay: primary screen, percent inhibition; read as competition with a fluorescent probe by fluorescence polarization; higher = more effect of the substance). Settings: 100 µM.
Chain of Parkinson's disease protein 7 (PARK7/DJ1) (Q99497 whole entry, looked up, the tested form may be a part): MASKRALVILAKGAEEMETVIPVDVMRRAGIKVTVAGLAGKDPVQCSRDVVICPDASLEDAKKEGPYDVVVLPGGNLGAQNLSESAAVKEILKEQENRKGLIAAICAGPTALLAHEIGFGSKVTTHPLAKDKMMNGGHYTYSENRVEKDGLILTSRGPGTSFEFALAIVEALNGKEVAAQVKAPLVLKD
Summary of the method: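 Covalent fragments at 100 μM final were incubated 2 h with 0.2 μM PARK7, then 20 nM probe JYQ-107 added for a further 2 h. Fluorescence polarization read at 480/520 nm; relative FP loss versus reference controls gave remaining enzyme activity.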
With `O=C(CCl)c1ccc(F)c(F)c1` the Inhibition % was 22.1%.
`Cc1ccc(C)c(C=C(C#N)S(C)(=O)=O)c1` gave an Inhibition % of -1.36%.
In the case of `O=C(CCl)NC(=O)CCSc1ccccc1`, the Inhibition % is reported as 8.57%.
`O=c1n(CCCl)nc2ccccn12` showed an Inhibition % of 3.05%.
Compound `C=CC(=O)Nc1cccc(CN2CCCC2=O)c1` has an Inhibition % of 10.1%.
Work on `CCOc1cc(C)c(Cl)cc1S(=O)(=O)n1cccn1` yielded an Inhibition % of -3.16%.
In the case of `O=C1CC(c2ccccc2)N1` (centres unmarked), the Inhibition % is reported as 7.05%.
`CC1(NC(=O)CCl)CCS(=O)(=O)C1` (centres unmarked) showed an Inhibition % of 2.17%.
`O=C(CCl)Nc1ccc(Cl)c(Cl)c1` gave an Inhibition % of 63%.
`C=CC(=O)NCC1(N2CCOCC2)CCSC1` (centres unmarked) gave an Inhibition % of 9.48%.
For `C=C(Cl)CSc1ncnc2[nH]cnc12`, the Inhibition % was 3.58%.
`Cc1ccc(C2=NN(C(=O)CCl)C(c3ccco3)C2)cc1` (centres unmarked) gave an Inhibition % of 9.14%.
Work on `C=CC(=O)N1Cc2nc(C)nc(O)c2C1` yielded an Inhibition % of 9.29%.
`Cl.O=C(CCl)Nc1cccc(CN2CCSCC2)c1` gave an Inhibition % of 13.6%.
With `Cn1cc(CCCl)cn1` the Inhibition % was -0.892%.
`NC(=O)c1ccc(NC(=O)CCCl)cc1` was tested, and the Inhibition % was 4.37%.
`CCNc1cnc(C#N)cn1` showed an Inhibition % of 8%.
Compound `CN(C(=O)c1cc(C(N)=O)cs1)C1CC(C)(C)OC1=O` (centres unmarked) has an Inhibition % of 7.6%.
Work on `C=CC(=O)NC1CCSC2(CCC2)C1` (centres unmarked) yielded an Inhibition % of 13.5%.
With `NS(=O)(=O)C=Cc1ccccc1` the Inhibition % was 9.94%.
Work on `C=CCNC(=O)C(C#N)=Cc1ccccc1F` yielded an Inhibition % of 9.92%.
In the case of `CC(=O)NCc1ccc(C(=O)CCl)cc1`, the Inhibition % is reported as 77.1%.
`CC1CC1C(=O)N1CCC(CS(=O)(=O)F)CC1` (centres unmarked) was tested, and the Inhibition % was 25.9%.
In the case of `OB(O)c1cc(F)ccc1OCc1ccncc1`, the Inhibition % is reported as 3.85%.
`C=CC(=O)NCC1=CCCCC1` was tested, and the Inhibition % was 9.18%.
Work on `C=CC(=O)N(C)CC(=O)Nc1cc(C)c(=O)n(C)c1` yielded an Inhibition % of 54.5%.
`Cc1cc(Cn2c(-c3ccccn3)noc2=O)on1` gave an Inhibition % of 8.09%.
In the case of `COc1cc(OC(F)F)ccc1B1OC(C)(C)C(C)(C)O1`, the Inhibition % is reported as -1.65%.
In the case of `N#Cc1cc(C(F)(F)F)cc(Cl)n1`, the Inhibition % is reported as 7.91%.
`CCN(CCC#N)S(=O)(=O)C=Cc1ccc(Cl)cc1` gave an Inhibition % of 31%.
For `CCc1ccc(OC)c(S(=O)(=O)n2cccn2)c1`, the Inhibition % was 9.73%.
`O=C(Cc1ccc2c(c1)COC2)Nc1cccc(S(=O)(=O)F)c1` gave an Inhibition % of 97.6%.
In the case of `CC1(C)OB(c2cncc(OCCCN3CCCC3)c2)OC1(C)C`, the Inhibition % is reported as 7.53%.
`O=C(C1CCOCC1)N1CCOC(CS(=O)(=O)F)C1` (centres unmarked) showed an Inhibition % of 13.3%.
Work on `C=CC(=O)NCc1cc(-c2ccccc2)on1` yielded an Inhibition % of 16.5%.

Reference: article PMC9574860, “Chemical Toolkit for PARK7: Potent, Selective, and High-Throughput” (Journal of Medicinal Chemistry, 2022)
